The supplement of paper PMC3334620
In all, about 33,000 sequences were measured (“E-score (-0.5 to 0.5)”: median about -0.011, highest 2% from about 0.28 on). The list shows a part of the results.

target: T1, Gcr1 (UniProt P07261); assay: PBM E-score (8-mer binding enrichment) (E-score (-0.5 to 0.5)); higher = stronger / more preferred TF binding; most listed sequences are background and not binding sites; conditions: protein concentration: 100 nM; construct: GST-full length
T1 sequence: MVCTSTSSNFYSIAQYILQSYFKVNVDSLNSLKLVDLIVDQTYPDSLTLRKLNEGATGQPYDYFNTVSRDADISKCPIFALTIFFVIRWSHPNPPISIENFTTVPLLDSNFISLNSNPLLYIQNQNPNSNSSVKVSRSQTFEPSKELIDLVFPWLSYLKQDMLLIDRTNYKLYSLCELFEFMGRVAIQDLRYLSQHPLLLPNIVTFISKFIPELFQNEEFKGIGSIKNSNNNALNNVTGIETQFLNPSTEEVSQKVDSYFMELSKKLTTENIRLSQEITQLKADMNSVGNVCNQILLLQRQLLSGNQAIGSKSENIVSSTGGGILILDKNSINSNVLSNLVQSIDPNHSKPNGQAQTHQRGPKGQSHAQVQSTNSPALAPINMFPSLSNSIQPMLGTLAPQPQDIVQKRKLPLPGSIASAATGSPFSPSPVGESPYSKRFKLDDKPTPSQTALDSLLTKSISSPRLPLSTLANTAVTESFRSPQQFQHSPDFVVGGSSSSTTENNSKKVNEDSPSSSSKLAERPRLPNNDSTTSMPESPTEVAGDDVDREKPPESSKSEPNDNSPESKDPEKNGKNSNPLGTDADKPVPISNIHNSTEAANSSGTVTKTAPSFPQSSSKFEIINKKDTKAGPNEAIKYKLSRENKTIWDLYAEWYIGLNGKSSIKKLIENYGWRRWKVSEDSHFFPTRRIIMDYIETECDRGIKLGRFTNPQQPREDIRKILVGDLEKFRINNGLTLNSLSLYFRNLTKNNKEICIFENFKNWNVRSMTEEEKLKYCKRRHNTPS
Procedure, shortened: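 Each ungapped eight-base word and its reverse complement, pooled, received an E-score from the Universal PBM Analysis Suite. Underlying scans, normalised with masliner, recorded fluorescent anti-GST bound to GST-tagged yeast transcription factors. These were applied at about 100-200 nM to universal all-10-mer Agilent arrays double-stranded by primer extension.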

Sequence	PBM E-score
AAGACCAG	-0.0707
CTGGAATA	0.259
ACTGAGTA	-0.0348
GATATATC	0.0242
GTCCACAC	0.0205
CTTACACA	-0.0766
GTCACCCA	-0.092
AACAGGCA	0.0706
ACTCCATA	0.0891
ATAGCCGC	0.0383
CGTCGACC	-0.228
ACGGCGCG	-0.0701
CACCGCAG	-0.0982
GTAGCAAC	0.0656
CACGTTGG	-0.0407
CGTTTAGA	0.12
GAGCGCCA	-0.0321
CTATGTCC	-0.0336
CCTGGTTC	0.0962
AAGGTTCT	0.211
ACGATCTC	-0.132
AAGAAAAC	-0.0707
ATATCGAA	0.153
ATACGGAC	-0.0849
AGTCTCTG	-0.22

Sequence	PBM E-score
ATCAAGTC	-0.133
ACACACCG	-0.153
AGAAAATC	0.156
ACGATTTC	-0.0826
AGATCGAT	-0.137
CAGCGGGA	0.0491
CGATTTTA	0.102
CCGTGAAC	-0.00534
CGCGAATA	0.192
CAGACGTC	-0.105
CAGAAATC	-0.032
ACCCACAG	0.00387
GTATACTA	-0.0859
GCAGGTAC	-0.00141
ACCATGGG	-0.0124
CCCATGGG	0.0667
AGGAAAAA	-0.283
GCCGCAAA	-0.0534
TATTAGAA	0.163
ACCCTAAA	0.0664
CACCAAGG	0.0974
GAGAAAAA	-0.0121
TCCGGTAA	0.168
ATTCGATA	0.234
GGAAAAAA	-0.0262

Sequence	PBM E-score
CAAGACGC	0.238
AAAGCGAT	0.142
CGCTACAG	0.108
ATGCTACC	0.0625
AGAAGCAT	0.0749
CGTAATGC	0.0461
AATACCTA	0.0884
TCAAGAAA	0.132
CCTTCACA	-0.248
CACGGCGA	-0.0331
CCAAGGGA	-0.0899
CCGCGTAC	-0.0772
AACTTCTG	0.163
ACCGACGC	-0.0878
AATCGAGC	0.0387
CTGACGGA	-0.229
ACACCAAG	-0.023
AGGTGACC	0.153
AGCAGCAT	-0.00516
CGAGCTGA	-0.0297
GGTGTTCA	0.106
CCCACACC	0.108
GATGTATA	0.0854
ACTACTCC	0.0438
TCCTGGAA	0.162

Sequence	PBM E-score
AAGTTGCT	0.194
AGACTAGC	-0.139
CTAGCGTA	-0.215
ACTTTTGC	-0.15
GTACCTAC	-0.0043
ACCTGTTA	0.0289
CTCACCGA	-0.189
CGACAGCG	-0.122
TACGAATA	-0.0693
ACACCCAA	-0.0445
AGTATCGA	0.0136
GGACACTA	0.0929
AGGCATTG	0.0194
ACCCGCCG	-0.0692
GCTAAGGA	0.222
CGCACTGA	-0.0511
ACAGGACA	-0.101
GAAGCTGC	0.406
CCAACTTA	0.147
ATTTCAGG	0.254
GCCATTGA	-0.183
CGCGTCAC	-0.00336
CTCTTGGC	0.0301
CCTTTGAC	-0.135
CGAAGGCA	-0.173

Sequence	PBM E-score
ATGTTGGC	0.00948
AAGTGACC	-0.151
ATCTCGCA	0.00385
TCAGCCAA	-0.102
AGAATGCG	0.0554
AGCAGCCG	0.285
AATGTGAG	0.0153
GTTTAAAA	0.184
ATGTCACA	0.092
TGATGGAA	0.177
AAGACTAA	0.109
CTAGTAAA	0.226
ACAGGCGA	-0.167
GACCTTCA	-0.157
ACAGCTCG	-0.11
CGACTGCC	-0.0219
ATTAAACG	0.0978
ATCATAGA	-0.121
TAGCGCTA	-0.201
ATCGGTAC	-0.121
TATGGGGA	0.14
AAGGACGT	-0.131
ACATGCCG	-0.135
ATCCCAAC	0.117
CAAAACTG	0.107

Sequence	PBM E-score
AAGCGGCT	0.232
AAAGTCGT	0.0398
CTGGCTTC	0.362
ACGAAAAC	-0.0729
CTATCGTC	-0.014
CGCTTCAA	0.038
GCGCTTTA	-0.0303
CCTTTCGA	0.0109
ATCTTTTG	-0.0138
ACTACACG	0.142
AGTTCTTC	0.129
GAGCAACA	-0.0873
CTGGCCTA	-0.394
GACTAGGA	-0.0166
AGTTACTA	0.142
CGATCAAG	-0.0812
AGGGCTAA	-0.141
ACTAGCTA	-0.00239
ACGAGAGC	-0.0344
TCGGACCA	-0.179
CTATGACC	-0.209
GCGAGATA	0.124
AACTATCG	-0.108
CACGGCTA	-0.0258
CCACTGGC	-0.022

Sequence	PBM E-score
GCAAATTA	0.145
AACGCGCT	0.0775
AGAGCCCT	-0.129
TGACGGAA	0.0807
CGAAGACA	-0.0758
AGGCACTG	-0.0493
CCTGCAAG	-0.232
ACTGGGAG	0.123
GCGATAAA	-0.112
CGGCGAGC	-0.256
AATAGTAA	0.0605
CAGGCGAA	-0.252
AGCGGGGG	-0.314
ACATCATG	-0.133
TACTCTAA	-0.196
AGGGGTCA	-0.0268
CATTCGTA	0.0763
GCTGACAC	-0.133
AAGTTGCC	0.127
ATGGCCCG	-0.309
AAGGCTCA	-0.217
CCCGTAGG	-0.106
AAAGCGTT	-0.224
GACAGGGA	0.0551
CGAGTTAG	-0.091

Sequence	PBM E-score
CGCTCCCA	0.132
CCTAACTA	0.192
ATAGCCGG	-0.174
CCTCCATA	-0.106
CTACACAA	-0.113
GGCACCCA	0.381
CACAATGC	-0.0262
AACCGCCC	-0.172
GCGTCGTA	0.242
CCTGCAGA	-0.063
ATGGAAAC	0.0953
CAGACAAA	0.0568
CACTGGGG	0.0565
GCATAACC	-0.19
ATACCCGG	-0.0356
ACATTCTG	-0.0939
CAAGAGTC	-0.0179
CCCAGATC	-0.109
GTTTGTAA	-0.00488
AAGGCTAA	-0.0944
GACTGCCC	-0.28
GATGGAGC	-0.112
AGCGGGAC	-0.0513
GATTACGA	-0.0537
GCAGTGGA	0.11

Sequence	PBM E-score
ACACTTAG	-0.0488
ATGAATCG	-0.0193
GAAAGCAC	-0.144
CTATAATC	0.00892
CTGCCGCA	0.0817
ACGTAGGA	0.00153
CTTTAGAA	0.0352
ACGCTGTA	-0.0367
AATCGAAT	0.168
GACTAGCA	-0.00823
TAACTATA	0.128
GCGGCAGC	0.253
GCCCAGGA	-0.0115
CCGAGCAC	0.104
AGAAGGCA	0.00025
GAAGTCCA	0.0795
GCATTTAA	0.0306
CCATCGCG	0.0375
GGCGAAAA	0.125
AGCAGAGA	0.0185
ACGAAATG	-0.0577
CACCCGAA	0.212
AATGCCGA	-0.178
GTCGTCGA	-0.0924
AGCGCCGC	0.187

Sequence	PBM E-score
CCTAACAC	0.107
ACTCCCTA	-0.0517
CGGCTTAG	0.0319
GGGTAGTA	-0.21
CACATCAG	-0.137
ATTAGTCG	-0.0557
ACGGTCTC	-0.147
AGTACGCC	-0.163
GTAGCGCA	0.139
GCGTATTA	0.109
TAGCGCAA	0.0029
CTGGGACA	-0.00954
AACGCACT	0.0984
CCGGCTAA	-0.0373
AATTTGTG	0.168
AAGGACAA	-0.181
AAACTTCT	0.139
GGCAAGCC	-0.0773
GGGGACGA	-0.0713
AACATAAA	0.089
AGATTTAT	0.107
AATTACAA	0.00033
CCATACGG	0.0586
TTAGGCAA	-0.0665
ACAACACG	-0.0643

Sequence	PBM E-score
GATACTCA	-0.0294
GACTCGCC	-0.18
CCGAGTGA	0.0218
ATCACTCA	0.00858
GGGAGCGA	-0.127
GATCTAAA	-0.0916
ACTAGAGG	0.134
ATCTACCG	-0.0418
AACTAGAG	0.105
TGACTGAA	-0.152
AGACACGA	0.0227
CGCACACC	0.0238
ACGGCTTA	-0.11
GCTTAGCC	-0.211
CATCTGGG	0.0918
GGGATGCA	-0.0546
ACAATCTA	-0.152
AATATTTG	0.149
AGCGTCCA	0.437
CTTCCTGA	0.179
CAACTTCG	0.107
ATCCACAT	0.223
AGGGGAGG	0.0595
AAACAGTG	-0.0349
CGCGGTGC	-0.116

Sequence	PBM E-score
AGACTCCG	-0.00535
ACGCCAGA	-0.0144
CAAGCTAA	-0.177
ACCCGACA	0.0455
CCTATATA	0.18
CGATTGAC	0.131
ATACGGGA	0.112
CTGCTAGA	-0.0641
CAGACCCA	0.0446
CGTAAAGA	-0.0217
CGGTTGAC	-0.0681
AGATTCTG	0.137
CATATCAG	0.0958
GATTGCGA	-0.0977
AATACTGG	0.369
CCCAGCAC	-0.0444
GGGTACCC	0.0484
CAAAGCCA	-0.104
CATACATC	0.0601
CCCGGCCG	-0.191
GCGTCCTA	0.43
ATCGAGTC	-0.0169
CTGCTGTC	-0.144
AACAGATA	0.00876
ACCTATAA	0.0515

Sequence	PBM E-score
CCCGCTAA	0.0209
CAGTGGGG	-0.00851
GAGGAAAC	-0.104
ACCAGGCC	-0.14
TAAATCGA	0.0142
GCGGTGCC	0.183
GATGCCTA	0.202
CACTAGTA	0.0388
GACTTACA	0.075
ATTAAGAG	0.0762
ACCAGCCC	0.114
AACCGTCC	-0.0266
ACCTTAAC	-0.0375
AGTTTCGC	0.0103
GGTGTATA	-0.28
GATGCCAC	0.342
GACTTTCC	-0.177
AGACGATG	0.189
CATGTAGA	0.0481
ATCTGCAC	0.0229
GCTGGATA	0.115
CCGAAGCA	-0.082
CAACATTG	-0.0426
AGCGCGGG	0.119
ATCCGACA	-0.019

Sequence	PBM E-score
CACCACAC	-0.0549
CGTGACAG	0.0136
GACTACTA	-0.0363
GAGACATC	0.0483
CATGCGGG	-0.0543
ATGGCTAC	0.124
CAAGCGTC	0.0379
AGGCGGGA	0.0309
CAGGTACG	-0.123
CGCAATCA	-0.0907
AAGAAAAT	0.304
CTATAAGC	-0.0389
CAGTGAAC	-0.0275
GTCCAATA	0.205
GAAGGGCC	-0.248
GAGACGCA	0.113
GCTGCGTA	0.286
CAGGTGTA	-0.0818
GCGCGGAA	0.014
